# According to publication PMC12040169 (PLOS Biology, 2025):
# The list shows a part of the results.
# Test system: T1, C. trachomatis L2/434/Bu expressing GFP (CTL2-GFP)
# T1 construct: L2/434/Bu GFP intracellular growth in HeLa cells
# Parameters: species or system HeLa; C. trachomatis total inclusion area by high-content imaging, normalised to DMSO
# Settings: total inclusion area; 28.5 h, 10 µM; inhibitor
# Procedure, shortened: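 Host cell viability was gauged from Hoechst-stained nuclei counts, while chlamydial growth was taken from total inclusion area and inclusion number per well. Cells were fixed and imaged by high-content microscopy once bulk GFP and resorufin fluorescence had been measured.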
row,SMILES,% of control remaining
1,Nc1nnc(CC(=O)N/N=C/c2cc(Br)c(O)c(Br)c2O)s1 [CBK262131],90.6283
2,OC1(c2ccccn2)CCN(CCc2ccccc2)CC1 [CBK282904],76.2296
3,O=S(=O)(c1ccc(F)cc1)N1CCCC(c2nccnc2-c2ccc(F)cc2)C1 (stereo not drawn) [CBK286136],86.4975
4,Cc1nc(C)c(C(=O)NC(Cc2ccsc2)c2nccs2)s1 (stereo not drawn) [CBK282822],115.962
5,Cc1cccc(Nc2nc(N/N=C/c3c[nH]nc3-c3ccccc3)nc(N3CCC(C)CC3)n2)c1C [CBK262498],93.6106
6,O=C(NCc1ccc(Cl)c(Cl)c1)C1(c2ccccc2)CCCC1 [CBK149528],65.6973
7,Cc1ccc2oc(C(=O)N3CCN(CC(=O)N(C)C)CC3)c(C)c2c1 [CBK281423],90.7143
8,NCC(=O)Nc1ccc(F)c(F)c1 [CBK046313],107.862
9,CCc1nc2ccc(C(=O)N3CCCC(C(N)=O)C3)cn2c1N(CC)CCN(C)C (stereo not drawn) [CBK146185],83.3414
10,O=C(/C=C/c1ccc(Cl)cc1Cl)NC(=S)Nc1ccccc1F [CBK264332],104.968
11,CCC(CC)C(=O)Nc1nc(OCCN2CCCC2=O)cnc1-c1ccc(Cl)cc1Cl [CBK145210],74.9245
12,O=C(NC1CCCC1)c1ccc(-c2cnc3[nH]c(=O)n(Cc4ccc(Cl)cc4)c3n2)cc1 [CBK065039],97.7464
13,Clc1ccc(CN2CCN(c3nccnc3OCC3COc4ccccc4O3)CC2)cc1 (stereo not drawn) [CBK082786T],65.8145
14,COc1ccccc1C(CC(=O)O)c1ccc2c(c1)OCO2 (stereo not drawn) [CBK286971],118.782
15,COc1ccc2[nH]c(C(=O)O)c(CCNC(C)=O)c2c1 [CBK260943N],96.1572
16,CN1CCN(c2ccc([N+](=O)[O-])cc2/C=N/NC(=O)CCc2ccccc2O)CC1 [CBK263281],95.1251
17,COc1ccc(C(=O)Nc2ccccc2N2CCN(C)CC2)c(OC)c1 [CBK269763],67.5743
18,CC1(C)OC(NC2CC3CCC2C3)=NC1=O (stereo not drawn) [CBK092237],75.2942
19,Cc1sc2ncn(CC3(O)CCCNC3)c(=O)c2c1-c1ccc(F)cc1 (stereo not drawn) [CBK307346],54.7824
20,COc1ccc(C(=O)N2CCC3(CCCN(C(=O)c4cc(OC)c(OC)c(OC)c4)C3)C2)cc1OC (stereo not drawn) [CBK131667],93.8637
21,O=C(O)c1nc(/N=C/c2ccc(C#Cc3ccccc3)cc2)n[nH]1 [CBK261219],103.816
22,CN(C)c1cccc(Nc2cc(-c3ccco3)ncn2)c1 [CBK091014],81.4578
23,COc1ccc(CN(CCCN2CCOCC2)C(=O)NCc2ccc(C#N)cc2)cc1OC [CBK159125],101.04
24,CCOc1ccccc1NC(=O)CSc1cnn[nH]1 [CBK270005],91.9537
25,COc1cccc(CN2CCN(C(=O)N3CCCC3)[C@@H](C)C2)c1 [CBK285491],75.9126
26,N=c1n(CCN2CCCCC2)c2ccccc2n1CC(=O)c1cccs1 [CBK278244B],103.671

row,SMILES,% of control remaining
1,O=C(O)c1cc(S(=O)(=O)N2CCOCC2)c(Cl)cc1NC1CCCCC1 [CBK264576],101.393
2,O=C(NCCNc1ccc(Cl)cc1[N+](=O)[O-])c1ccccc1Br [CBK263538],109.13
3,Cc1ccc(-c2ncc(OCC3CCCN3C)nc2N)c(C)c1 (stereo not drawn) [CBK145137],73.9191
4,CC(C)(C)OC(=O)N1CCC(CNS(=O)(=O)c2cccc3cccnc23)CC1 [CBK086017],114.859
5,Cc1cc(CN2CCN(c3nc(-c4ccccc4)nc4ccccc34)CC2)no1 [CBK296654],100.836
6,Cc1c(NC(=O)c2ccc3c(c2)C(=O)N(Cc2ccco2)C3=O)cccc1C(=O)O [CBK268627],142.13
7,Fc1ccc(-c2cn(-c3cncnc3)nn2)c(F)c1 [CBK112989],105.353
8,CCC1CCC2(CC1)NC(=O)N(Cc1nc(-c3cccs3)no1)C2=O (stereo not drawn) [CBK305005],114.507
9,Cn1c(SCC(=O)c2ccc(Cl)cc2)nnc1-c1cnccc1C(F)(F)F [CBK067698],64.9333
10,CCN1CCN(CCCOc2ccccc2Cc2ccccc2)CC1 [CBK267379G],83.176
11,CC[C@@H]1COCCN1C(=O)c1sc2ccccc2c1Cl [CBK103641],93.5934
12,CSCCCNC(=O)N1CCNC(=O)C1 [CBK155848],95.282
13,COc1ccc2c(c1)C1(CC(=O)N(CCc3scnc3C)C1=O)C(=O)N2C (stereo not drawn) [CBK075213],95.9825
14,Cc1ccccc1CSc1nc2ccc([N+](=O)[O-])cc2[nH]1 [CBK267879],82.0633
15,N#CCC(=O)Nc1ccc(F)c(Cl)c1 [CBK085905],80.6984
16,Brc1cnc(OCc2ccccc2)nc1OCc1ccccc1 [CBK261274],105.716
17,Cc1ccccc1C(=O)NCCNC(=O)c1nonc1N [CBK267677],87.8642
18,NC(=O)c1ccccc1NC(=O)CN1CCN(Cc2cccc(Cl)c2)CC1 [CBK270320],79.9486
19,Cc1ccc2c(c1)CCCN2C(=O)c1csc2c(C(F)(F)F)cc(N3CCOCC3)nc12 [CBK028367],66.0769
20,O=C(c1cnccn1)N1CCC(Cc2ccccc2)CC1 [CBK200181],93.9066
21,O=C(NCCc1ccc(O)cc1)c1ccc2[nH]ccc2c1 [CBK149063],92.868
22,COc1cccc(CN2CCCC(NC(=O)c3ccccc3Cl)C2)c1 (stereo not drawn) [CBK306774],67.5628
23,CC(=O)Nc1ccc(-c2ccc3n(c2=O)C[C@H]2C[C@@H]3CN(C(=O)C3CCCCC3)C2)cc1 [CBK289188],112.56
24,O=C(Cn1cc(C(=O)Nc2cc(F)ccc2N2CCCC2)ccc1=O)NC1CCCCC1 [CBK285981],113.618
25,O=C(Nc1ccc2ncccc2c1)c1ccc(F)c(F)c1 [CBK159810],85.5294
